About 150 (0.041%) of roughly 370,000 compounds were called active. This list was built around the results that the source calls inconclusive (neither active nor inactive); the mix of calls is not that of the screen. Calls follow the shape of the dose curve; as a rule, active = well fitted inhibition curve with a large enough effect; inconclusive = small, poorly fitted or top-dose-only effect; inactive = flat fitted curve, though single readings scatter. No potency is given beside an inconclusive call; the fits are too rough.
Target: Beta-lactamase (Escherichia coli (strain K12)) (UniProt P00811)
Chain of UniProt P00811 (P00811 whole entry, looked up): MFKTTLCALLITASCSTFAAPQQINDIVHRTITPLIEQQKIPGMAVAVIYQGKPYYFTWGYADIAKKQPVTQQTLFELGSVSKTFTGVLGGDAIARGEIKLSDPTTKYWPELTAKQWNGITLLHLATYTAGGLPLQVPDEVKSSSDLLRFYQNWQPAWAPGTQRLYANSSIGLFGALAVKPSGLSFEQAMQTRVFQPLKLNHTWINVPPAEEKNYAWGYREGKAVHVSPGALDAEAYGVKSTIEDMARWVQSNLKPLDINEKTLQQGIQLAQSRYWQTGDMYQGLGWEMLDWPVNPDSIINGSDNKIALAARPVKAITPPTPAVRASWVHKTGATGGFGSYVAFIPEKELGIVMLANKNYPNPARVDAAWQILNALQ
Test: qHTS Inhibitors of AmpC Beta-Lactamase (assay with detergent); also: nearly all actives have a fitted effect of over 25% in size
Conditions: AmpC hydrolysis of nitrocefin, absorbance 480 nm, 0.01% Triton; series mostly up to 114 µM
Outline: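 AmpC (5.3 nM in the dispensed reagent) in 20 mM phosphate pH 7.0 with 0.01% (detergent screen) or 0.0001% Triton X-100 was preincubated with compounds for 15 min at room temperature. Nitrocefin was then added from an 800 uM solution, and hydrolysis was followed at 480 nm.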
Potency is read from the fitted curve at half-maximal effect; tags tell the direction and shape of the fitted curve.

Compound	Potency
O=C(c1ccco1)N1CCN(S(=O)(=O)Cc2ccc(Cl)cc2)CC1	inconclusive [inhibitor, full curve, poor fit]
CCOc1ccc(-n2cc(C(=O)N3CCN(C)CC3)c3cc(OC)c(OC)cc3c2=O)cc1	inconclusive [inhibitor, partial curve, poor fit]
CCN(CC)CCn1c2c(c(SCC(=O)Nc3ccc(C(C)C)cc3)nc1=O)CCCC2	inconclusive [inhibitor, full curve]
CC(C)c1ccccc1N=C1SCCN1C1CCS(=O)(=O)C1 (centres undefined)	inconclusive [inhibitor, full curve, poor fit]
O=C(CC(=O)NC1CCCCC1)N/N=C/c1ccccc1[N+](=O)[O-]	inactive
O=S(=O)(Nc1ccc(O)c(CN2CCCCC2)c1)c1ccccc1	inconclusive [inhibitor, full curve, poor fit]
COC(=O)C1=C(N)Oc2cc(C)n(CC3CCCO3)c(=O)c2C1c1ccc(Cl)cc1 (centres undefined)	inconclusive [inhibitor, full curve, poor fit]
CC(C)CCOc1ccc(C(=O)N2CCN(c3ncccn3)CC2)cc1	inactive
O=C(NC1CC1)c1ccc2c(c1)C1C3CCC(C3)C1C(c1ccccc1)N2 (centres undefined)	inconclusive [inhibitor, full curve, poor fit]
COc1cccc(N2CCN(C(=O)c3ccc(CS(=O)c4ccccc4Cl)o3)CC2)c1 (centres undefined)	inactive
COc1ccccc1NC(=O)C1=C(C)NC(SCC(=O)c2ccccc2)=C(C#N)C1c1ccco1 (centres undefined)	inconclusive [inhibitor, full curve]
O=C(Nc1ccccc1)N1CC=C(c2ccccc2)CC1	inconclusive [inhibitor, single point]
COc1ccc(S(=O)(=O)N2CCN(C(=O)c3cccnc3)CC2)cc1OC	inconclusive [inhibitor, full curve, poor fit]
O=C(c1cccs1)n1nc(-c2ccc(Cl)cc2)nc1NCc1ccco1	inconclusive [inhibitor, full curve, poor fit]
O=C(NCN1C(=O)C2C3C=CC(C3)C2C1=O)Nc1cccnc1 (centres undefined)	inconclusive [inhibitor, full curve, poor fit]
Cc1ccc(NC(=O)N(Cc2ccc3c(c2)OCO3)C2CCN(Cc3ccccc3)CC2)cc1Cl	inactive
CCCCCCC(c1c(C)n(C)n(-c2ccccc2)c1=O)c1c(C)n(C)n(-c2ccccc2)c1=O	inconclusive [inhibitor, partial curve, poor fit]
CN(C)CCCNC(=O)C(=O)NCC(c1cccs1)S(=O)(=O)c1ccc(F)cc1 (centres undefined)	inconclusive [inhibitor, single point]
Nc1c2c(nc3ccccc13)CCCC2=O	inactive
COc1ccc(CC(=O)NC(C)c2nnc(SCc3nc4ccccc4c(=O)[nH]3)n2C)cc1 (centres undefined)	inconclusive [inhibitor, full curve, poor fit]
C[C@H](NC(=O)c1ccccc1Cl)C(=O)OCC(=O)N1CC2(C)CC1CC(C)(C)C2 (some centres undefined)	inactive
Cc1cc(SCC(=O)OCC(=O)N2CCN(C(=O)c3ccco3)CC2)c(C)cc1Br	inconclusive [inhibitor, single point]

Compound	Potency
O=C(CCC(=O)N1CCCCC1)Nc1nnc(C2CCCCC2)s1	inconclusive [inhibitor, full curve, poor fit]
CCOC(=O)c1cc(CC)sc1NC(=O)c1cc(OC)c(OC)c(OC)c1	inconclusive [inhibitor, full curve, poor fit]
Cc1cccc(C(=O)Nc2ccc(O)c3c(=O)cc(-c4ccccc4Cl)oc23)c1	inconclusive [inhibitor, full curve, poor fit]
COc1ccc(C2C(C(C)=O)=C(C)N=c3s/c(=C\c4ccco4)c(=O)n32)c(OC)c1 (centres undefined)	inconclusive [inhibitor, full curve, poor fit]
Cc1ccc2c(c1)N(C(=O)NC1CCCCC1)C(C)(C)CC2C (centres undefined)	inactive
COC(=O)c1cc(Br)c(=O)n(Cc2ccc(C(=O)O)cc2)c1	inconclusive [inhibitor, full curve, poor fit]
O=C(CSc1ncnc2c1nnn2Cc1ccc(F)cc1)NC1CCCCC1	inconclusive [inhibitor, full curve, poor fit]
COc1ccc(-c2nc(CS(=O)CC(=O)NCC3CCCO3)c(C)o2)cc1 (centres undefined)	inconclusive [inhibitor, full curve, poor fit]
COc1ccc(N(CC(=O)N2CCOCC2)S(C)(=O)=O)cc1OC	inactive
COc1ccc2nc(C(F)(F)C(F)(F)F)c(C#N)c(N)c2c1	inactive
CCC(C)NC(=O)C(Cc1ccccc1)n1cccc1 (centres undefined)	inconclusive [inhibitor, full curve]
COc1ccc(CCC(=O)Nc2ncc(C)s2)cc1	inactive
Cc1cccc(OCC(=O)Nc2ccc(S(=O)(=O)N3CCCC3)cc2)c1	inconclusive [inhibitor, full curve, poor fit]
CC(=O)c1ccc(NC(=O)CSc2nnc3ccc(-c4ccc(F)cc4)nn23)cc1	inactive
Cc1cccn2cc(-c3ccccc3)nc12	inconclusive [inhibitor, partial curve, poor fit]
COCCNC(=O)Cn1ncc2ccsc2c1=O	inconclusive [inhibitor, full curve, poor fit]
CCCc1cnc(N2CCN(S(C)(=O)=O)CC2)nc1	inactive
CCN(CC)c1ccc(S(=O)(=O)N2CCOCC2)cc1NC(=O)COC(=O)c1ccco1	inconclusive [inhibitor, partial curve, poor fit]
CCc1ccc(NC(=O)CSc2ccc(-c3sc(C)nc3C)nn2)cc1	inactive
Nc1nc(NC(=O)c2ccccc2)nn1-c1ccccc1	inconclusive [inhibitor, full curve, poor fit]
CCCCn1c(N)c(N(CCOC)C(=O)C2CCN(c3ncnc4sc(C)c(C)c34)CC2)c(=O)[nH]c1=O	inconclusive [inhibitor, full curve, poor fit]
CCN(Cc1ccccc1)C(=O)CCS(=O)(=O)c1ccc2c(c1)NC(=O)CO2	inconclusive [inhibitor, partial curve, poor fit]

Compound	Potency
COc1ccc(N2CCN(C(=O)c3ccc(N4C(=O)NC5CC4(C)Oc4ccccc45)cc3)CC2)cc1 (centres undefined)	inconclusive [inhibitor, single point]
Cc1ccccc1-n1c(O)c(/C=C/C=Nc2ccccc2)c(=O)[nH]c1=O	inconclusive [inhibitor, single point]
Cc1ccc(S(=O)(=O)N2CCN(S(C)(=O)=O)C2c2ccccc2)cc1 (centres undefined)	inconclusive [inhibitor, partial curve]
O=C(Oc1cccc(-c2cnc3ccccc3n2)c1)c1ccco1	inconclusive [inhibitor, partial curve]
N=C1c2ccccc2CN1CC(=O)c1ccccc1	inactive
OC1CCN(C(=S)NCCc2ccccc2)CC1	inconclusive [inhibitor, full curve, poor fit]
CC(CN1CCOCC1)C(=O)c1ccccc1 (centres undefined)	inconclusive [inhibitor, full curve, poor fit]
COc1ccc(-c2noc(CCC(=O)NCCc3cccc(C)c3)n2)cc1	inactive
O=C(C[n+]1cccc(C(=O)N/N=C/c2ccc(Br)cc2)c1)c1ccccc1	inconclusive [inhibitor, full curve, poor fit]
CCOC(=O)CSc1ncnc2c1cnn2-c1ccc(C)cc1	inconclusive [inhibitor, single point]
Cc1cccc(N2C(=O)CN(Cc3ccccc3)C2=S)c1	inconclusive [inhibitor, full curve, poor fit]
CCCCC1CC(/C(C)=N/NC(N)=O)OC1=O (centres undefined)	inconclusive [inhibitor, full curve, poor fit]
CCOC(=O)C1CCN(c2c(N3CCCC(C(=O)OCC)C3)c(=O)c2=O)CC1 (centres undefined)	inconclusive [inhibitor, single point]
Cc1ccc(C(=O)Cn2c(C(=O)/C=C/c3ccccc3)nc3ccccc32)cc1	inconclusive [inhibitor, full curve]
O=C(c1ccccc1Cc1ccccc1)N1CCN(S(=O)(=O)c2ccccc2)CC1	inconclusive [inhibitor, full curve]
O=C(NCCc1ccccc1)c1ccc2nc(N3CCOCC3)sc2c1	inconclusive [inhibitor, partial curve, poor fit]
Cc1ccnc(N(C(=O)c2cccs2)C(=O)c2cccs2)c1	inconclusive [inhibitor, partial curve]
COc1ccc(NC(=O)C2CCCN(c3c4c(nc5ncnn35)CCC4)C2)cc1OC (centres undefined)	inconclusive [inhibitor, partial curve]
CC(=O)c1cc(C#N)c(SCC(=O)C(C)(C)C)nc1C	inconclusive [inhibitor, partial curve, poor fit]
Cc1nn(Cc2ccccc2Cl)c(C)c1C(=O)N(C)CC(=O)Nc1cccc(F)c1	inconclusive [inhibitor, partial curve, poor fit]
